# Test results from patent US5854204A, “Aβ peptides that modulate β-amyloid aggregation” (priority 1996, dated 1998).
# At least one peptide structure holds a part that was inferred or is arguable (an end, a ring closure or a residue). Numbered stars: 1 amine (or outer) side, 2 acyl side, 3 side chain; on linkers, the order of the positions; unused ones are H or OH. Square brackets hold non-standard residues; d marks the D form. Peptide text beside a SMILES is read from it. * marks the point of attachment. Cholyl = C[C@H](CCC(=O)*)[C@H]1CC[C@H]2[C@@H]3[C@H](O)C[C@@H]4C[C@H](O)CC[C@]4(C)[C@H]3C[C@H](O)[C@]12C; X2 = O=C(C1(O)C[C@H](O)[C@@H](N[*:1])[C@H]([C@H](O)[C@H](O)CO)O1)[*:2]; βAla = NCCC(=O)O
# Biological target: Aβ1-40 (Homo sapiens, UniProt P05067)
# Sequence (P05067 672-711): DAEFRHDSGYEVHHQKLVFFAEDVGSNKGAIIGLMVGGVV
# Conditions: not given
Compound,delaying the lag time of aggregation,inhibition of the plateau level of aggregation,inhibitory activity on Aβ aggregation (stated in text)
"CC(C)C[C@H](NC(=O)[C@H](CCCCN)NC(=O)CC[C@@H](C)[C@H]1CC[C@H]2[C@@H]3[C@H](O)C[C@@H]4C[C@H](O)CC[C@]4(C)[C@H]3C[C@H](O)[C@]12C)C(=O)N[C@H](C(=O)N[C@@H](Cc1ccccc1)C(=O)N[C@@H](Cc1ccccc1)C(N)=O)C(C)C [PPI-319, cholyl-Aβ16-20-amide]",retained high activity in delaying the lag time of aggregation,did not inhibit the overall plateau level of aggregation over time,–
CC(C)C[C@H](NC(=O)[C@H](CCCCN)NC(=O)[C@H](CCC(N)=O)NC(=O)[C@H](Cc1c[nH]cn1)NC(=O)CC[C@@H](C)[C@H]1CC[C@H]2[C@@H]3[C@H](O)C[C@@H]4C[C@H](O)CC[C@]4(C)[C@H]3C[C@H](O)[C@]12C)C(=O)N[C@H](C(=O)N[C@@H](Cc1ccccc1)C(=O)N[C@@H](Cc1ccccc1)C(=O)O)C(C)C [PPI-348] (Cholyl-HQKLVFF-OH),–,–,inhibitory activity is restored
"CC(C)C[C@H](NC(=O)[C@H](CCCCN)NC(=O)[C@H](CCC(N)=O)NC(=O)CC[C@@H](C)[C@H]1CC[C@H]2[C@@H]3[C@H](O)C[C@@H]4C[C@H](O)CC[C@]4(C)[C@H]3C[C@H](O)[C@]12C)C(=O)N[C@H](C(=O)N[C@@H](Cc1ccccc1)C(=O)N[C@@H](Cc1ccccc1)C(=O)O)C(C)C [PPI-349, cholyl-Aβ15-20]",–,–,still maintained inhibitory activity
"CC(C)C[C@H](NC(=O)[C@H](CCCCN)NC(=O)CC[C@@H](C)[C@H]1CC[C@H]2[C@@H]3[C@H](O)C[C@@H]4C[C@H](O)CC[C@]4(C)[C@H]3C[C@H](O)[C@]12C)C(=O)N[C@H](C(=O)N[C@@H](Cc1ccccc1)C(=O)N[C@@H](Cc1ccccc1)C(=O)O)C(C)C [PPI-350, cholyl-Aβ16-20]",–,–,exhibited inhibitory activity
"C[C@H](NC(=O)[C@H](C)NC(=O)[C@H](C)NC(=O)[C@H](C)NC(=O)[C@H](C)NC(=O)CC[C@@H](C)[C@H]1CC[C@H]2[C@@H]3[C@H](O)C[C@@H]4C[C@H](O)CC[C@]4(C)[C@H]3C[C@H](O)[C@]12C)C(=O)O [PPI-365, Cholyl-penta-alanine, reference compound]",–,–,showed no inhibitory activity
CC(C)C[C@H](NC(=O)[C@H](CCCCN)NC(=O)[C@H](CCC(N)=O)NC(=O)CC[C@@H](C)[C@H]1CC[C@H]2[C@@H]3[C@H](O)C[C@@H]4C[C@H](O)CC[C@]4(C)[C@H]3C[C@H](O)[C@]12C)C(=O)N[C@H](C(=O)N[C@@H](Cc1ccccc1)C(=O)O)C(C)C [PPI-366] (Cholyl-QKLVF-OH),–,–,loss of inhibitory activity
"CC(C)C[C@H](NC(=O)CC[C@@H](C)[C@H]1CC[C@H]2[C@@H]3[C@H](O)C[C@@H]4C[C@H](O)CC[C@]4(C)[C@H]3C[C@H](O)[C@]12C)C(=O)N[C@H](C(=O)N[C@@H](Cc1ccccc1)C(=O)N[C@@H](Cc1ccccc1)C(=O)N[C@@H](C)C(=O)O)C(C)C [PPI-368, cholyl-Aβ17-21]",–,–,exhibited inhibitory activity
CC(C)C[C@H](NC(=O)[C@H](CCCCN)NC(=O)CC[C@@H](C)[C@H]1CC[C@H]2[C@@H]3[C@H](O)C[C@@H]4C[C@H](O)CC[C@]4(C)[C@H]3C[C@H](O)[C@]12C)C(=O)N[C@H](C(=O)N[C@@H](Cc1ccccc1)C(=O)N[C@@H](Cc1ccccc1)C(=O)O)[C@@H](C)O [PPI-369] (Cholyl-KLTFF-OH),–,–,loss of activity
"CC(C)C[C@H](NC(=O)[C@H](CCCCN)NC(=O)CC[C@@H](C)[C@H]1CC[C@H]2[C@@H]3[C@H](O)C[C@@H]4C[C@H](O)CC[C@]4(C)[C@H]3C[C@H](O)[C@]12C)C(=O)N[C@H](C(=O)N[C@@H](C)C(=O)N[C@@H](Cc1ccccc1)C(=O)O)C(C)C [PPI-370, cholyl-Aβ16-20 Phe19- >Ala] (Cholyl-KLVAF-OH)",–,–,still retained detectable inhibitory activity
"CC(C)C[C@H](NC(=O)[C@H](CCCCN)NC(=O)CCCC[C@@H]1SC[C@@H]2NC(=N)N[C@@H]21)C(=O)N[C@H](C(=O)N[C@@H](Cc1ccccc1)C(=O)N[C@@H](Cc1ccccc1)C(=O)O)C(C)C [PPI-374, iminobiotinyl-Aβ16-20]",–,–,exhibited inhibitory activity similar to cholyl-Aβ16-20

# Same assay, conditions: Table II; 100 mole % relative to 50 μM Aβ1-40
row,Compound,Fold Increase in Lag Time
1,CC(=O)N[C@H]1[C@H]([C@H](O)[C@H](O)CO)OC(O)(C(=O)N[C@@H](Cc2c[nH]cn2)C(=O)N[C@@H](CC(=O)O)C(=O)N[C@@H](CO)C(=O)NCC(=O)N[C@@H](Cc2ccc(O)cc2)C(=O)N[C@@H](CCC(=O)O)C(=O)N[C@H](C(=O)N[C@@H](Cc2c[nH]cn2)C(=O)N[C@@H](Cc2c[nH]cn2)C(=O)N[C@@H](CCC(N)=O)C(=O)N[C@@H](CCCCN)C(=O)N[C@@H](CC(C)C)C(=O)N[C@H](C(=O)N[C@@H](Cc2ccccc2)C(=O)N[C@@H](Cc2ccccc2)C(=O)O)C(C)C)C(C)C)C[C@@H]1O (stereo partly drawn) [PPI-266] (Ac-[X2]HDSGYEVHHQKLVFF-OH),1.3 fold
2,CC(=O)N[C@H]1[C@H]([C@H](O)[C@H](O)CO)OC(O)(C(=O)N[C@@H](CCCCN)C(=O)N[C@@H](CC(C)C)C(=O)N[C@H](C(=O)N[C@@H](Cc2ccccc2)C(=O)N[C@@H](Cc2ccccc2)C(=O)N[C@@H](C)C(=O)N[C@@H](CCC(=O)O)C(=O)N[C@@H](CC(=O)O)C(=O)N[C@H](C(=O)NCC(=O)N[C@@H](CO)C(=O)N[C@@H](CC(N)=O)C(=O)N[C@@H](CCCCN)C(=O)NCC(=O)N[C@@H](C)C(=O)O)C(C)C)C(C)C)C[C@@H]1O (stereo partly drawn) [PPI-276] (Ac-[X2]KLVFFAEDVGSNKGA-OH),~ 1 fold
3,CC[C@H](C)[C@H](NC(=O)[C@H](C)NC(=O)CNC(=O)[C@H](CCCCN)NC(=O)[C@H](CC(N)=O)NC(=O)[C@H](CO)NC(=O)CNC(=O)[C@@H](NC(=O)[C@H](CC(=O)O)NC(=O)[C@H](CCC(=O)O)NC(=O)[C@H](C)NC(=O)C1(O)C[C@H](O)[C@@H](NC(C)=O)[C@H]([C@H](O)[C@H](O)CO)O1)C(C)C)C(=O)N[C@H](C(=O)NCC(=O)N[C@@H](CC(C)C)C(=O)N[C@@H](CCSC)C(=O)O)[C@@H](C)CC (stereo partly drawn) [PPI-281] (Ac-[X2]AEDVGSNKGAIIGLM-OH),~ 1 fold
4,CC[C@H](C)[C@H](NC(=O)[C@H](C)NC(=O)CNC(=O)[C@H](CCCCN)NC(=O)[C@H](CC(N)=O)NC(=O)[C@H](CO)NC(=O)CC[C@@H](C)[C@H]1CC[C@H]2[C@@H]3[C@H](O)C[C@@H]4C[C@H](O)CC[C@]4(C)[C@H]3C[C@H](O)[C@]12C)C(=O)N[C@H](C(=O)NCC(=O)N[C@@H](CC(C)C)C(=O)N[C@@H](CCSC)C(=O)N[C@H](C(=O)NCC(=O)NCC(=O)N[C@H](C(=O)N[C@H](C(=O)O)C(C)C)C(C)C)C(C)C)[C@@H](C)CC [PPI-284] (Cholyl-SNKGAIIGLMVGGVV-OH),> 4.5 fold
5,CC[C@H](C)[C@H](NC(=O)[C@H](C)NC(=O)CNC(=O)[C@H](CCCCN)NC(=O)[C@H](CC(N)=O)NC(=O)[C@H](CO)NC(=O)C1(O)C[C@H](O)[C@@H](NC(C)=O)[C@H]([C@H](O)[C@H](O)CO)O1)C(=O)N[C@H](C(=O)NCC(=O)N[C@@H](CC(C)C)C(=O)N[C@@H](CCSC)C(=O)N[C@H](C(=O)NCC(=O)NCC(=O)N[C@H](C(=O)N[C@H](C(=O)O)C(C)C)C(C)C)C(C)C)[C@@H](C)CC (stereo partly drawn) [PPI-286] (Ac-[X2]SNKGAIIGLMVGGVV-OH),1.3 fold

# Same assay, conditions: Table V; 33 mole % inhibitor
row,Compound,ΔLag (ratio of lag time with test compound to lag time of control)
1,CC(C)C[C@H](NC(=O)[C@H](CCCCN)NC(=O)[C@H](CCC(N)=O)NC(=O)[C@H](Cc1c[nH]cn1)NC(=O)CC[C@@H](C)[C@H]1CC[C@H]2[C@@H]3[C@H](O)C[C@@H]4C[C@H](O)CC[C@]4(C)[C@H]3C[C@H](O)[C@]12C)C(=O)N[C@H](C(=O)N[C@@H](Cc1ccccc1)C(=O)N[C@@H](Cc1ccccc1)C(N)=O)C(C)C [PPI-315] (Cholyl-HQKLVFF-NH2),1.1

# Same assay, conditions: Table V; 100 mole % inhibitor relative to Aβ1-40
row,Compound,ΔLag (ratio of lag time with test compound to lag time of control)
1,CC(=O)N[C@H]1[C@H]([C@H](O)[C@H](O)CO)OC(O)(C(=O)N[C@@H](Cc2c[nH]cn2)C(=O)N[C@@H](CCC(N)=O)C(=O)N[C@@H](CCCCN)C(=O)N[C@@H](CC(C)C)C(=O)N[C@H](C(=O)N[C@@H](Cc2ccccc2)C(=O)N[C@@H](Cc2ccccc2)C(N)=O)C(C)C)C[C@@H]1O (stereo partly drawn) [PPI-316] (Ac-[X2]HQKLVFF-NH2),1.5
2,CC(C)C[C@H](NC(=O)[C@H](CCCCN)NC(=O)CC[C@@H](C)[C@H]1CC[C@H]2[C@@H]3[C@H](O)C[C@@H]4C[C@H](O)CC[C@]4(C)[C@H]3C[C@H](O)[C@]12C)C(=O)N[C@H](C(=O)N[C@@H](Cc1ccccc1)C(=O)N[C@@H](Cc1ccccc1)C(=O)NCCC(=O)O)C(C)C [PPI-371] (Cholyl-KLVFF[βAla]-OH),2.5
3,CC(C)C[C@H](NC(=O)[C@@H](NC(=O)[C@H](Cc1ccccc1)NC(=O)[C@H](CCCCN)NC(=O)[C@H](Cc1ccccc1)NC(=O)CC[C@@H](C)[C@H]1CC[C@H]2[C@@H]3[C@H](O)C[C@@H]4C[C@H](O)CC[C@]4(C)[C@H]3C[C@H](O)[C@]12C)C(C)C)C(=O)O [PPI-372] (Cholyl-FKFVL-OH),0.8
4,CC(=O)N[C@H]1[C@H]([C@H](O)[C@H](O)CO)OC(O)(C(=O)N[C@@H](CCCCN)C(=O)N[C@@H](CC(C)C)C(=O)N[C@H](C(=O)N[C@@H](Cc2ccccc2)C(=O)N[C@@H](Cc2ccccc2)C(=O)O)C(C)C)C[C@@H]1O (stereo partly drawn) [PPI-373] (Ac-[X2]KLVFF-OH),0.9
5,CC(C)[C@H](NC(=O)[C@@H](NC(=O)[C@H](CCCCN)NC(=O)CC[C@@H](C)[C@H]1CC[C@H]2[C@@H]3[C@H](O)C[C@@H]4C[C@H](O)CC[C@]4(C)[C@H]3C[C@H](O)[C@]12C)[C@@H](C)O)C(=O)N[C@@H](Cc1ccccc1)C(=O)N[C@@H](Cc1ccccc1)C(=O)O [PPI-375] (Cholyl-KTVFF-OH),1.2

# Same assay, conditions: concentrations higher than mole 33%, not tested
row,Compound,inhibition of the plateau level of aggregation
1,"CC(C)C[C@H](NC(=O)[C@H](CCCCN)NC(=O)CC[C@@H](C)[C@H]1CC[C@H]2[C@@H]3[C@H](O)C[C@@H]4C[C@H](O)CC[C@]4(C)[C@H]3C[C@H](O)[C@]12C)C(=O)N[C@H](C(=O)N[C@@H](Cc1ccccc1)C(=O)N[C@@H](Cc1ccccc1)C(N)=O)C(C)C [PPI-319, cholyl-Aβ16-20-amide]",predicted to inhibit the overall plateau level of aggregation

# Same assay, conditions: listed as cholyl-Aβ16-20
row,Compound,inhibitory activity on Aβ aggregation (stated in text)
1,"CC(C)C[C@H](NC(=O)[C@H](CCCCN)NC(=O)CC[C@@H](C)[C@H]1CC[C@H]2[C@@H]3[C@H](O)C[C@@H]4C[C@H](O)CC[C@]4(C)[C@H]3C[C@H](O)[C@]12C)C(=O)N[C@H](C(=O)N[C@@H](Cc1ccccc1)C(=O)N[C@@H](Cc1ccccc1)C(=O)O)C(C)C [PPI-350, cholyl-Aβ16-20]",still maintained inhibitory activity
